# From PMC4336329 (PLoS ONE, 2015)
# The campaign covered roughly 310,000 compounds. About 2,200 (0.71%) showed an effect of 50% or more. Effects have a minus sign here. The list shows a part of the results.
# Target: human ether-à-go-go-related gene (hERG) potassium channel (human, UniProt Q12809)
# Assay: primary screen, population patch clamp on CHO cells stably expressing hERG
# Chain of human ether-à-go-go-related gene (hERG) potassium channel (Q12809 whole entry, looked up): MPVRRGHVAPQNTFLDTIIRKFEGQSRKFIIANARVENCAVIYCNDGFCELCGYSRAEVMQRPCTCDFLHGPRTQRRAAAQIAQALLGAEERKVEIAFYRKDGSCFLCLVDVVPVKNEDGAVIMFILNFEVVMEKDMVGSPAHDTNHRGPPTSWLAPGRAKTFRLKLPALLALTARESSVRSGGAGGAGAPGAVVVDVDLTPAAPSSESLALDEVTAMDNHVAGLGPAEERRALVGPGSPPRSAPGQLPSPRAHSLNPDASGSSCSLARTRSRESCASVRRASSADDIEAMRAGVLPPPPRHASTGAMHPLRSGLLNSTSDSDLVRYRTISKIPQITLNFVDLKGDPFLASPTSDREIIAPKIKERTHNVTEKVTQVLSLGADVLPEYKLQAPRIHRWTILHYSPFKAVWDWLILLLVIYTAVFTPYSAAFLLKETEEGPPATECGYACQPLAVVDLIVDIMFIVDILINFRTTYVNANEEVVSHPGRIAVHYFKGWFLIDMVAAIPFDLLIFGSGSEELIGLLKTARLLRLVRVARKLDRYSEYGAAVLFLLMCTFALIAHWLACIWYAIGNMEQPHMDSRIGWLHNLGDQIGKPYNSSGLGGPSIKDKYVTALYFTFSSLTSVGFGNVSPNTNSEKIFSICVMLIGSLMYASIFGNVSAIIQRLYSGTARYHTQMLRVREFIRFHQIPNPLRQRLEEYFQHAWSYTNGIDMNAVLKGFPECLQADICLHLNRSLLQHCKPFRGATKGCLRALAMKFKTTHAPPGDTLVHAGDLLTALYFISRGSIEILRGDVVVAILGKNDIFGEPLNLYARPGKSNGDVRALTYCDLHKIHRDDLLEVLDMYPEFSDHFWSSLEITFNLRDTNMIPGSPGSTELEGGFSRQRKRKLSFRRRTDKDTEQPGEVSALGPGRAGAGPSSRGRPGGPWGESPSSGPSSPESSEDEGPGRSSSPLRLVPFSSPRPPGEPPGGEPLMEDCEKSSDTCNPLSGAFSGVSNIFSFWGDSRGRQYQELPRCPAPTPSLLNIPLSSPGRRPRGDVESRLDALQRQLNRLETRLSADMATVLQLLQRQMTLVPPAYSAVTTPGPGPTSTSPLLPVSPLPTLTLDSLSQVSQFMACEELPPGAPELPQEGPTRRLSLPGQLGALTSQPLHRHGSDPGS
row,Compound,"hERG current change (%, negative = inhibition) at 1uM"
1,C[C@H]1CCC/C=C/[C@@H]2C[C@H](O)C[C@H]2[C@H](O)/C=C/C(=O)O1 [56422115],14.4%
2,CC(=O)Nc1c(C)ccc(CNC(=O)COc2ccc(F)cc2)c1C,7.77%
3,CCOC(=O)N1CCC(NC(=O)CN2C(=O)C(CC)Oc3ccc(C)cc32)CC1 (stereo not drawn),10.2%
4,COc1ccc(C)cc1S(=O)(=O)NCC(c1ccco1)N1CCc2ccccc2C1 (stereo not drawn),-30.2%
5,Cn1cc(CNCc2cn(C)nc2-c2ccc(C3CCCCC3)cc2)cn1,13.2%
6,Cc1ccc(NC(=O)c2ccc(C)cc2)cc1,10.4%
7,Cc1c(NC(=O)Nc2cc(Cl)ccc2Cl)c(=O)n(-c2ccccc2)n1C,10.4%
8,CN(C)c1ccc(NC(=O)CSc2nc3ccccc3c(=O)n2CC2CCCO2)cc1 (stereo not drawn),17.3%
9,CCCC1COC(Cn2cncn2)(c2ccc(Cl)cc2Cl)O1 (stereo not drawn),10.9%
10,COC(=O)c1ccc(N=NN2CCOCC2)cc1,4.07%
11,CCOC(=O)CNS(=O)(=O)c1cc(-c2nnc(Nc3ccc4c(c3)OCO4)c3ccccc23)ccc1C,11.4%
12,COC(=O)c1sccc1S(=O)(=O)N1CCCC(N(C)CCc2ccccn2)C1 (stereo not drawn),1.25%
13,CCn1c(SCc2nc3ccccc3c(=O)[nH]2)nnc1C(C)NC(=O)c1ccccc1 (stereo not drawn),11.6%
14,Cc1ccc(C(C)C)c(OCc2nnc(SCC(=O)Nc3ncc(C)s3)n2C)c1,4.85%
15,Cc1cc(NC(=O)COC(=O)CSCc2ccc(Cl)c(Cl)c2)no1,-4.43%
16,COc1cc(C(c2c(C)[nH]n(-c3ccccc3)c2=O)c2c(C)[nH]n(-c3ccccc3)c2=O)cc(OC)c1OC,20.3%
17,O=C(Nc1ccccc1)Nc1ccc2ccccc2c1,12.5%
18,O=C(NCCN1CCCCCC1)C1CCN(S(=O)(=O)N2CCOCC2)CC1,7.26%
19,Cc1ccc(S(=O)(=O)Nc2cccnc2Oc2ccc(Cl)cc2)cc1,9.46%
20,Cc1nn(-c2ccccc2)c(C)c1N,24.8%
21,CC(C)(C)[C@H]1C=C(C(=O)NC2CC2)O[C@@H](OCc2ccc(CO)cc2)C1,9.32%
22,CC(C)CCNc1c(-c2cccs2)nc2ccccn12,1.01%

row,Compound,"hERG current change (%, negative = inhibition) at 1uM"
1,O=C(CN1C(=O)C2CCCN2C(=O)c2ccccc21)Nc1ccccc1-n1cccc1 (stereo not drawn),-8.74%
2,CCCS(=O)(=O)N1CCCC(C(=O)NCc2ccc(C)cc2)C1 (stereo not drawn),10.8%
3,O=C(Cc1ccc(F)cc1)NCCS(=O)(=O)N1CCN(c2cccc(Cl)c2)CC1,-2.34%
4,CS(=O)(=O)Nc1ccc([N+](=O)[O-])cc1Oc1ccccc1,1.22%
5,Cn1c(O)c(N=Nc2ccc(F)cc2)c2ccccc21,17.3%
6,NC(=O)c1ccsc1NC(=O)COC(=O)c1ccc(Cl)cc1,0.665%
7,CC1CCN(C(=O)c2cc(-c3ccc4c(c3)OCO4)on2)CC1,9.04%
8,COc1ccc(N2CCN(C(=O)CNC(=O)c3ccco3)CC2)cc1,14.8%
9,O=C(CN1c2cccc3cccc(c23)S1(=O)=O)NCc1ccc2c(c1)OCO2,0.394%
10,O=C(NC(=S)NC1CCS(=O)(=O)C1)c1ccccc1Br (stereo not drawn),5.64%
11,O=C(N/N=C/c1cc([N+](=O)[O-])ccc1Cl)c1ccc2nc[nH]c2c1,2.81%
12,COc1ccc(N2C(=O)C3CCCN3C2c2cccc(OC)c2OC)cc1 (stereo not drawn),7.83%
13,CC(C)c1ccc(CNC(=O)C2CC(=O)N(C3CCCCC3)C2)cc1 (stereo not drawn),8.37%
14,CCOC(=O)CC(=O)CSc1nc(N)c(C#N)c(-c2ccc(F)cc2)c1C#N,6.71%
15,CCOc1ccc(NS(=O)(=O)c2ccc(OCC(=O)NCc3ccncc3)cc2)cc1,-2.31%
16,Cc1cc(=O)[nH]c(N/N=C/c2c(O)n(-c3ccccc3)c(=O)c3ccccc23)n1,-0.415%
17,Cc1ccc(-c2nnc(NCc3nc4ccccc4[nH]3)c3ccccc23)cc1S(=O)(=O)N1CCCCC1.Cl,10.2%
18,Cc1ccccc1C(=O)N/N=C1\SCC(=O)N1Cc1ccco1,6.67%
19,COCc1cc(C)nc(N/N=C/c2ccc(-c3ccc(C(=O)O)c(Cl)c3)o2)c1C#N,15.8%
20,CC(=O)c1ccc(NC(=O)c2ccc(S(=O)(=O)N3CCCC3)cc2)cc1,14.1%
21,NC/C(=N\O)c1ccc(Cl)cc1Cl,12.6%
22,COc1ccc(/C=C/C(=O)Nc2cccc(N3CCOCC3)c2)cc1OC,6.58%

row,Compound,"hERG current change (%, negative = inhibition) at 1uM"
1,CCOC(=O)c1sc(NC(=O)c2ccccc2OCC)nc1C,5.6%
2,COc1ccc2[nH]c(=O)c(CN(CC3CCCO3)C(=O)Nc3ccccc3)cc2c1 (stereo not drawn),6.03%
3,c1ccc(OCc2nnnn2-c2ccccc2)cc1,18.9%
4,COc1ccc(-c2cnnn2-c2ccc([N+](=O)[O-])cc2)cc1,-13.2%
5,CCN(c1ccccc1)S(=O)(=O)c1ccc(Cl)c(NC(=O)CN(C)C2CCN(C)CC2)c1,1.47%
6,Cc1cc(C)c(NC(=S)NCCO)c(C)c1,4.07%
7,CCc1ccc(CN(C)C(=O)c2cc(COc3c(F)cccc3F)on2)cc1,12.6%
8,CCC(C)(C)NC(=O)C(c1ccc(OC)cc1)N(Cc1ccc(OC)cc1)C(=O)CCC(=O)Nc1cc(C)on1 (stereo not drawn),16.3%
9,COc1cc(/C=C2\N=C(c3ccccc3)NNC2=O)cc(OC)c1OC,22.4%
10,Cc1c(C#N)c2ncn(Cc3ccccc3)c(=O)c2n1-c1ccccc1,6.89%
11,CCOc1ccc(NC(=S)Nc2cc(C)[nH]n2)cc1,-2.58%
12,CC1(C)CN(c2ccsc2C(=O)O)C1=O,10.5%
13,CCOc1ccc(OCC)c(C2C(C#N)=C(N)N(c3cccnc3)C3=C2C(=O)CC(C)(C)C3)c1 (stereo not drawn),4.99%
14,O=C(CCS(=O)(=O)c1ccc(Br)cc1)Nc1cc(F)ccc1F,8.63%
15,O=C(COC(=O)c1ccccc1)Nc1ccc2[nH]c(=O)[nH]c2c1,-0.225%
16,CCc1ccc(-c2ccc(SCC(=O)Nc3nnc(C)s3)nn2)cc1,8.34%
17,O=C(OCCN1CCOCC1)c1ccc(O)cc1,8.47%
18,O=C(Nc1ccc(N2CCOCC2)c(Cl)c1)c1ccc(Br)o1,-5.57%
19,O=C(CCc1ccccc1)NCCc1ccc(F)cc1,7.18%
20,CC1CC(OCC(O)CN2CCOCC2)CC(C)(C)C1.Cl (stereo not drawn),5.79%
21,O=C(COC(=O)C1=COCCO1)Nc1cccc(S(=O)(=O)N2CCOCC2)c1,9.63%
22,CCOc1ccc(N2C(=O)CS/C2=C(\C(Cl)=C(Cl)Cl)[N+](=O)[O-])cc1,14.2%

row,Compound,"hERG current change (%, negative = inhibition) at 1uM"
1,COc1ccc(S(=O)(=O)N2CCOC2CNC(=O)C(=O)NCCc2ccccc2OC)cc1C (stereo not drawn),8.47%
2,C=CCn1c(C(C)(C)C)nc2ccccc21,2.77%
3,COc1ccc(OC)c(S(=O)(=O)n2nc(C)cc2C)c1,-0.46%
4,CCC(C(=O)Nc1ccc(S(=O)(=O)N2CCN(C)CC2)cc1)c1ccccc1 (stereo not drawn),14.4%
5,O=C(Cn1cc(C(F)(F)F)cc(Cl)c1=O)Nc1ccc(N2CCOCC2)cc1,3.85%
6,COc1ccc(N2C(=O)C(CC(=O)O)S/C2=N\N=C\c2cccs2)cc1 (stereo not drawn),11%
7,Cc1nn(C(C)(C)C)c(OC(=O)c2ccc3c(c2)OCO3)c1Sc1ccccc1,10.2%
8,COc1cc(C(=O)N/C(=C/c2ccc(F)cc2)C(=O)NC(C(=O)O)c2ccccc2)cc(OC)c1OC (stereo not drawn),4.92%
9,CCCNC(=O)CN1C(=O)NC(c2ccccc2)(c2ccccc2)C1=O,7.14%
10,Oc1ccc(C[C@@H]2CNCCN2CCc2cc(C(F)(F)F)cc(C(F)(F)F)c2)cc1,1.37%
11,Cc1cc(C)c(S(=O)(=O)Nc2c(C)[nH]c(=O)[nH]c2=O)c(C)c1,7.62%
12,Cc1cc(S(=O)(=O)NCCN(C)C)c(C)s1.Cl,8.52%
13,CCN(CC)c1ccc(S(=O)(=O)N2CCOCC2)cc1NC(=O)CNCc1ccccc1.O=C(O)C(=O)O,1.29%
14,Cc1nc2c(c(=O)n1CCC(C)C)c1nc3ccccc3nc1n2CC1CCCO1 (stereo not drawn),4.92%
15,CCN(CC)c1ccc2cc(S(=O)(=O)c3ccc(C)cc3)c(=O)oc2c1,12.8%
16,O=C(c1cc2cc(F)ccc2[nH]1)N1CCc2ccccc2C1,14.9%
17,Cc1c(-c2ccc(Br)cc2)[n+](=O)c2c(n1[O-])CCCC2,19.2%
18,Cc1cccc2cc(CN(Cc3ccc(F)cc3)C(=O)N3CCOCC3)c(=O)[nH]c12,1.19%
19,CCC(=O)N1CCN(C(C)=O)C1c1ccccc1 (stereo not drawn),15.1%
20,CCC(NC(=S)NC1CCCCC1)c1ccc(C)cc1 (stereo not drawn),15.1%
21,O=C(N/N=C/c1ccc(O)cc1O)c1ccncc1,11.5%
